Test results as given in article PMC5892938.
This is one part of the list. At the low end of the ranking, values are background and their order means little.
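Further: DESeq read counts versus GST-SBP nonspecific binding control pulldown.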

Each sequence was assayed against GST-SBP-SLBP (stem-loop binding protein) (UniProt Q14493) (assay: targeted RNA Bind-n-Seq). Details: RBNS binding buffer: 25 mM Tris pH 7.5, 150 mM KCl, 3 mM MgCl2, 0.1% Tween, 0.5 mg/mL BSA, 1 mM DTT; 27 nM protein, 750 pM RNA pool; temperature not stated; high values mean tight binding.
Work on “GGUCACGUCUCAAUCAACUCGUUUUCAGGAGUUUCCUCCUGCAAUUUCAACAGCUCGCAGUCAAG” yielded a binding signal (log2 fold change) of 0.0113. In the case of “GGUCACGUCUCAAUCAACUCUUCCUCCAGGGAAACCCCUGGUUAUGUCAACAGCUCGCAGUCAAG”, the binding signal (log2 fold change) is reported as 0.0594. “GGUCACGUCUCAAUCAACUCCCUGGAGGGGGGGAAAACCCCUUUACCCUCAACAUCAACAGCUCGCAGUCAAG” showed a binding signal (log2 fold change) of 0.108. “GGUCACGUCUCAAUCAACUCUAUCUCCAGGGAAAACCCUGGUAUUCUCAACAGCUCGCAGUCAAG” was tested, and the binding signal (log2 fold change) was 0.277. With “GGUCACGUCUCAAUCAACUCUUCUUCCAGGGAAAGCCCUGGUUUUCUCAACAGCUCGCAGUCAAG” the binding signal (log2 fold change) was -0.0258. “GGUCACGUCUCAAUCAACUCUUUUCCAGGAGUUUUCUCCUGUAAUCUCAACAGCUCGCAGUCAAG” showed a binding signal (log2 fold change) of -0.263. For “GGUCACGUCUCAAUCAACUCUUUCGCCAGGGAAACCCCUGGGUAUCUCAACAGCUCGCAGUCAAG”, the binding signal (log2 fold change) was -0.0435. In the case of “GGUCACGUCUCAAUCAACUCUUUCCCCAGGGAAACCCCUGGCAAACUCAACAGCUCGCAGUCAAG”, the binding signal (log2 fold change) is reported as 0.143. For “GGUCACGUCUCAAUCAACUCAUCGGCAGGAGUUUACUCCUGGAAAUUCAACAGCUCGCAGUCAAG”, the binding signal (log2 fold change) was 0.227. Sequence “GGUCACGUCUCAAUCAACUCAUCGUCCAGGGAAAUCCCUGGUAAUCUCAACAGCUCGCAGUCAAG” has a binding signal (log2 fold change) of 0.0367. For “GGUCACGUCUCAAUCAACUCACUCGAGGGGGGGAAAACCCCUUUACCCUCAUAAUCAACAGCUCGCAGUCAAG”, the binding signal (log2 fold change) was 0.257. Sequence “GGUCACGUCUCAAUCAACUCAUCUUCCAGGGAAAUCCCUGGUUUUCUCAACAGCUCGCAGUCAAG” has a binding signal (log2 fold change) of 0.00601. “GGUCACGUCUCAAUCAACUCAACUUCCAGGGAAAUCCCUGGCUAACUCAACAGCUCGCAGUCAAG” showed a binding signal (log2 fold change) of -0.00946. “GGUCACGUCUCAAUCAACUCAACUCCCAGGGAAAACCCUGGUUUACUCAACAGCUCGCAGUCAAG” was tested, and the binding signal (log2 fold change) was -0.291. “GGUCACGUCUCAAUCAACUCAUCUUCAGGAGUUUGCUCCUGUAAUUUCAACAGCUCGCAGUCAAG” showed a binding signal (log2 fold change) of 0.0838. Sequence “GGUCACGUCUCAAUCAACUCAGUCCCCAGGGAAAUCCCUGGUUUUUUCAACAGCUCGCAGUCAAG” has a binding signal (log2 fold change) of -0.0781. Sequence “GGUCACGUCUCAAUCAACUCAAUGUCCAGGGAAAACCCUGGUUUUUUCAACAGCUCGCAGUCAAG” has a binding signal (log2 fold change) of -0.0911. Sequence “GGUCACGUCUCAAUCAACUCUACAGAGGGGGGGAAAACCCCUUUACCCUCAUCGUCAACAGCUCGCAGUCAAG” has a binding signal (log2 fold change) of -0.171. With “GGUCACGUCUCAAUCAACUCAUUUCCAGGAGUUUUCUCCUGCAAUUUCAACAGCUCGCAGUCAAG” the binding signal (log2 fold change) was 0.0958. In the case of “GGUCACGUCUCAAUCAACUCUUCGCCAGGAGUUUCCUCCUGCUUUUUCAACAGCUCGCAGUCAAG”, the binding signal (log2 fold change) is reported as -0.148. Sequence “GGUCACGUCUCAAUCAACUCAUCGGAGGGGGGGAAAACCCCUUUACCCUCACCAUCAACAGCUCGCAGUCAAG” has a binding signal (log2 fold change) of -0.166. Sequence “GGUCACGUCUCAAUCAACUCAAACGAGGGGGGGAAAACCCCUUUGCCCUCAUCAUCAACAGCUCGCAGUCAAG” has a binding signal (log2 fold change) of 0.219. “GGUCACGUCUCAAUCAACUCUUUAGAGGGGGGGAAAACCCCUUUGCCCUCAUAAUCAACAGCUCGCAGUCAAG” gave a binding signal (log2 fold change) of 0.271. In the case of “GGUCACGUCUCAAUCAACUCAUUCUCCAGGGAAACCCCUGGCAUUCUCAACAGCUCGCAGUCAAG”, the binding signal (log2 fold change) is reported as -0.158. “GGUCACGUCUCAAUCAACUCAUUUUCAGGAGUUUGCUCCUGUAUUUUCAACAGCUCGCAGUCAAG” showed a binding signal (log2 fold change) of -0.0738. “GGUCACGUCUCAAUCAACUCAUCUUCCAGGGAAACCCCUGGCUUACUCAACAGCUCGCAGUCAAG” was tested, and the binding signal (log2 fold change) was 0.0942. Work on “GGUCACGUCUCAAUCAACUCAUUCCCAGGAGUUUCCUCCUGUUAAUUCAACAGCUCGCAGUCAAG” yielded a binding signal (log2 fold change) of 0.0858. “GGUCACGUCUCAAUCAACUCUACUCCAGGAGUUUACUCCUGUAAUUUCAACAGCUCGCAGUCAAG” was tested, and the binding signal (log2 fold change) was -0.338. “GGUCACGUCUCAAUCAACUCAUUCCCAGGAGUUUCCUCCUGUAAACUCAACAGCUCGCAGUCAAG” gave a binding signal (log2 fold change) of 0.164. With “GGUCACGUCUCAAUCAACUCAAUCUCCAGGGAAAACCCUGGCAAUGUCAACAGCUCGCAGUCAAG” the binding signal (log2 fold change) was 0.578. With “GGUCACGUCUCAAUCAACUCAUUUUCAGGAGUUUGCUCCUGUUUUUUCAACAGCUCGCAGUCAAG” the binding signal (log2 fold change) was 0.00789. Sequence “GGUCACGUCUCAAUCAACUCAACAGAGGGGGGGAAAACCCCUUUACCCUCCAAAUCAACAGCUCGCAGUCAAG” has a binding signal (log2 fold change) of -0.224. Work on “GGUCACGUCUCAAUCAACUCAACUCCAGGAGUUUCCUCCUGCUAUCUCAACAGCUCGCAGUCAAG” yielded a binding signal (log2 fold change) of 0.199. In the case of “GGUCACGUCUCAAUCAACUCAUCCCCCAGGGAAAGCCCUGGCUUUUUCAACAGCUCGCAGUCAAG”, the binding signal (log2 fold change) is reported as -0.215. “GGUCACGUCUCAAUCAACUCAUUCCCAGGAGUUUUCUCCUGCAAUCUCAACAGCUCGCAGUCAAG” showed a binding signal (log2 fold change) of -0.0261. Sequence “GGUCACGUCUCAAUCAACUCAACUUCAGGAGUUUCCUCCUGUUAAUUCAACAGCUCGCAGUCAAG” has a binding signal (log2 fold change) of -0.199. Sequence “GGUCACGUCUCAAUCAACUCUUUUUCAGGAGUUUCCUCCUGCAAAUUCAACAGCUCGCAGUCAAG” has a binding signal (log2 fold change) of 0.0665. In the case of “GGUCACGUCUCAAUCAACUCUAUCCCCAGGGAAAACCCUGGUUUUUUCAACAGCUCGCAGUCAAG”, the binding signal (log2 fold change) is reported as -0.12. “GGUCACGUCUCAAUCAACUCUUCGCCCAGGGAAAACCCUGGUUAUCUCAACAGCUCGCAGUCAAG” showed a binding signal (log2 fold change) of -0.217. With “GGUCACGUCUCAAUCAACUCAACUUCAGGAGUUUCCUCCUGCUAACUCAACAGCUCGCAGUCAAG” the binding signal (log2 fold change) was 0.017. In the case of “GGUCACGUCUCAAUCAACUCUUCUCCCAGGGAAACCCCUGGCUUACUCAACAGCUCGCAGUCAAG”, the binding signal (log2 fold change) is reported as 0.0804. In the case of “GGUCACGUCUCAAUCAACUCUUCUUCAGGAGUUUUCUCCUGCUUACUCAACAGCUCGCAGUCAAG”, the binding signal (log2 fold change) is reported as 0.0178. With “GGUCACGUCUCAAUCAACUCUCAAGAGGGGGGGAAAACCCCUUUGCCCUCAAAAUCAACAGCUCGCAGUCAAG” the binding signal (log2 fold change) was -0.0605. “GGUCACGUCUCAAUCAACUCACAAGAGGGGGGGAAAACCCCUUUACCCUCCUAUUCAACAGCUCGCAGUCAAG” gave a binding signal (log2 fold change) of 0.107. “GGUCACGUCUCAAUCAACUCAAUAGAGGGGGGGAAAACCCCUUUGCCCUCACCGUCAACAGCUCGCAGUCAAG” gave a binding signal (log2 fold change) of -0.123. “GGUCACGUCUCAAUCAACUCAAUUUCAGGAGUUUACUCCUGUUUUUUCAACAGCUCGCAGUCAAG” gave a binding signal (log2 fold change) of -0.0321. “GGUCACGUCUCAAUCAACUCUUCUCCCAGGGAAAACCCUGGUAAUGUCAACAGCUCGCAGUCAAG” was tested, and the binding signal (log2 fold change) was 0.222.
